Laboratory results: PubChem BioAssay AID624417 (National Center for Advancing Translational Sciences (NCATS), 2012)
Among all 410,000 compounds or so, about 6,400 (1.6%) were called active. The shares of active, inactive and inconclusive entries below differ from those in the screen. Calls come from the whole dose curve; as a rule, active = well fitted inhibition curve with a large enough effect; inconclusive = small, poorly fitted or top-dose-only effect; inactive = no such curve, though single readings can be large or run the other way. No potency is given beside an inconclusive call; the fits are too rough.

Target: Glucagon-like peptide 1 receptor (Homo sapiens) (UniProt P43220)
Assay: qHTS of GLP-1 Receptor Inverse Agonists (Inhibition Mode); note: nearly all actives have a fitted effect of over 55% in size
Conditions: HEK293 GLP-1R CRE-luciferase, luminescence, 24 h, GLP-1R form is constitutively active; series mostly up to 38.3 µM
In short: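 Seeding at 200 cells/uL, 12 h culture, 24 hr compound treatment, then luciferase reagent and a luminescence read; cells are HEK293 stably expressing a constitutively active GLP-1R plus cAMP-responsive luciferase.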
Potency is the fitted concentration of half-maximal effect; tags give direction and shape of the fitted curve.

Sequence of UniProt P43220 (P43220 whole entry, looked up): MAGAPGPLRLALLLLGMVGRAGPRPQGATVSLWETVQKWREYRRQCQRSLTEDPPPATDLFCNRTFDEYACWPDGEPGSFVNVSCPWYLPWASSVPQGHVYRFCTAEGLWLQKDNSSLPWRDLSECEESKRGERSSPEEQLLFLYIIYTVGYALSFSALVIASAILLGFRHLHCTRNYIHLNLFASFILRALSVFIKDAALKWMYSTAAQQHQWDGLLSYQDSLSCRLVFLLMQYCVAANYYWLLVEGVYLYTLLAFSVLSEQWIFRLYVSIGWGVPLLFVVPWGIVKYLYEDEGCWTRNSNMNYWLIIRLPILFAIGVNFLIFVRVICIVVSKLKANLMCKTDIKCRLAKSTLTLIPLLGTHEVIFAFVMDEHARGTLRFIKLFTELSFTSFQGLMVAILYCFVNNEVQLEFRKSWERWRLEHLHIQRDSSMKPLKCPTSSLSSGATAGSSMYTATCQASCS

Row | SMILES | Potency
1 | c1ccc(CC2CCN(c3nnnn3-c3ccccc3)CC2)cc1 | inconclusive [inhibitor, partial curve, poor fit]
2 | CCc1ccccc1OCC(=O)Nc1cc(S(=O)(=O)N2CCOCC2)ccc1N1CCCCC1 | inconclusive [inhibitor, single point]
3 | CC1=C(C(=O)N(C(C)C)C(C)C)CC(CC(=O)NCC2CCCCC2)C(=O)N1Cc1ccc(F)cc1 (centres undefined) | inconclusive [inhibitor, single point]
4 | CC(C)OC(=O)Nc1ccc2c(c1)N(C(=O)N1CCN(C)CC1)c1ccccc1CC2 | inconclusive [inhibitor, partial curve, poor fit]
5 | CCCSc1sc(C(=O)OC)c(-c2cccs2)c1C#N | inconclusive [inhibitor, partial curve, poor fit]
6 | O=S(=O)(c1ccccc1F)N1CCC(c2nc3ccccc3[nH]2)CC1 | inconclusive [inhibitor, single point]
7 | CCOC(=O)c1c(NC(=O)c2ccc(S(=O)(=O)N(C)CC3CCCO3)cc2)sc2c1CC(C)(C)NC2(C)C (centres undefined) | inconclusive [inhibitor, full curve, poor fit]
8 | O=C(NCC(=O)N(Cc1cccs1)C(C(=O)NC1CCCCC1)c1ccco1)c1ccco1 (centres undefined) | inconclusive [inhibitor, partial curve, poor fit]
9 | COc1ccc(CCNC(=O)CC(c2ccccc2)c2cccc(C)c2O)cc1OC (centres undefined) | inconclusive [inhibitor, single point]
10 | Cc1sc2ccc3sccc3c2[n+]1C | inconclusive [inhibitor, single point]
11 | Cc1c(C(=O)N2CCN(S(=O)(=O)c3cc(F)ccc3F)CC2)oc2ccccc12 | inconclusive [inhibitor, partial curve, poor fit]
12 | COc1ccc(C2CC(=O)c3c([nH]c(C(=O)OC4CCCCCC4)c3C)C2)cc1OC (centres undefined) | inconclusive [inhibitor, partial curve, poor fit]
13 | COc1ccc(C=C(C(C)=O)C(=O)c2ccccc2)cc1 | inconclusive [inhibitor, single point]
14 | CCCn1c(C)cc(=O)c2cc(NC(=O)c3ccccn3)ccc21 | inconclusive [inhibitor, partial curve, poor fit]
15 | Cc1ccc(OCC(=O)Nc2c(C)nn(-c3ccccc3)c2C)c(Br)c1 | inconclusive [inhibitor, single point]
16 | O=C(OCC(=O)N1N=C(c2ccc(Cl)cc2)CC1c1ccco1)c1ccccc1O (centres undefined) | inconclusive [inhibitor, partial curve, poor fit]
17 | CCn1c(C)c(C)c2cc(C(=O)NCCN3CCOCC3)ccc21 | inactive
18 | O=C(Nc1ccc(Oc2cccnc2)cc1)C1CCN(Cc2ccccc2)CC1 | inconclusive [inhibitor, single point]
19 | O=C(NCCCN1CCCC1)c1ccc2c(Cl)c3c(nc2c1)CCCC3 | inconclusive [inhibitor, partial curve, poor fit]
20 | C[C@H]1CN([C@@H](C)CO)S(=O)(=O)c2ccc(Br)cc2O[C@@H]1CN(C)Cc1cccc(F)c1 | inconclusive [inhibitor, single point]

Row | SMILES | Potency
21 | Cc1nccn1CC(O)COc1ccccc1 (centres undefined) | inactive
22 | C#CCN(C(=O)c1cc(COc2ccc(C)c(C)c2)on1)C1CCCCC1 | active: 10 µM
23 | Cc1cc(OCc2cc(C(=O)N3CCN(C)C(=O)[C@@H]3C)no2)cc(C)c1Cl | inconclusive [inhibitor, partial curve, poor fit]
24 | COc1ccc(-c2[nH]ncc2CN2CCCN(c3ccccc3)CC2)c(F)c1 | inconclusive [inhibitor, partial curve, poor fit]
25 | CCCCC(NC(=O)COc1cc2c(c3oc(=O)cc(C)c13)CCC(C)(C)O2)C(=O)O (centres undefined) | inactive
26 | CCn1c(=S)sc2c(=O)n(-c3ccccc3)c(=S)[nH]c21 | inconclusive [inhibitor, single point]
27 | Cc1cnc(C(=O)OCC(=O)c2c[nH]c3ccccc23)cn1 | inactive
28 | C#Cc1ccc([C@H]2C=C(C(=O)N3CCN(Cc4ccccc4)CC3)O[C@@H](OCc3ccc(CO)cc3)C2)cc1 | inconclusive [inhibitor, single point]
29 | O=C(c1cccs1)N1CCN(c2ncc(C(F)(F)F)cc2Cl)CC1 | inconclusive [inhibitor, single point]
30 | COc1ccc(C)cc1NC(=O)NCCCCc1ccccc1 | inconclusive [inhibitor, partial curve, poor fit]
31 | COc1ccc(Cl)cc1NC(=O)CCCC(=O)c1ccccc1 | inconclusive [inhibitor, partial curve]
32 | CCCN(CCC)CCNC(=O)CCC(=O)Nc1ccc2nc(N3CCOCC3)cc(C)c2c1 | inactive
33 | C[C@@H]1C(c2ccc(F)cc2)=NN(c2ccc(Br)cc2)[C@H]1C(=O)N1CCOC1=O | active: 10 µM
34 | Cn1cccc1C(=O)Nc1ccc(Cl)c(S(=O)(=O)N2CCCCC2)c1 | inconclusive [inhibitor, partial curve, poor fit]
35 | O=C(c1cccc(F)c1)N1CCC(c2c[nH]c3ccccc23)(c2c[nH]c3ccccc23)CC1 | inconclusive [inhibitor, partial curve, poor fit]
36 | O=C(NC1CCCC1)c1cc(-c2ccccc2)on1 | inconclusive [inhibitor, single point]
37 | Cc1cc(C)c(C)c(S(=O)(=O)N(C)C2CCN(C)CC2)c1C | inconclusive [inhibitor, single point]
38 | Cc1cc(C)n(CC(=O)NNC(=O)c2ccc(OC(F)(F)F)cc2)n1 | inactive
39 | Cc1c(C(=O)Nc2ccc(F)cc2)oc2ccc(S(=O)(=O)N3CCC4(CC3)OCCO4)cc12 | inactive
